Measured values as given in the supplement of paper PMC10126150.
Values marked as one replicate rest on one cluster of the flow cell; about a third of the high ones do not repeat.

system: ATP; assay: switch fluorescence ratio, 500 uM ATP over buffer (Cy3 cluster intensity, sum of 5 cycles each) (fold (ratio)); higher = stronger signal-on switching upon ATP binding; sequences stand for … in TCGTCGGCAGCGTCAGATGTGTATAAGAGACAGTTTTTTTTTTTTTTTTTTTTTTTTT…TC; settings: aptamer strand: ATP DNA aptamer (quencher-CACCTGGGGGAGTATTGCGGAGGAAGG + anchor), 100 nM annealed; ATP concentration: 500 uM; one replicate
In short: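 Between each of five buffer/ATP cycles, the flow-cell was stripped with NaOH and re-annealed. Each cycle imaged Cy3-labelled switching-strand clusters, annealed to 100 nM quencher-labelled ATP aptamer on a modified Illumina MiSeq flow-cell, first in selection buffer and then after 15 min with 500 uM ATP at 22 °C. The fluorescence ratio is summed target-cycle over summed buffer-cycle Cy3 intensity per cluster, averaged per switch-domain sequence, with clusters outside 100-1000 RFU excluded.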
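Also: ATP exposure 15 min at 22 °C before imaging.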

Sequence	switch fluorescence ratio
GTTTTGTGG	0.971
AATTTTGGTC	1.07
GCAAGACAGT	1.23
CTATGAAGGA	0.997
GTACTTCACT	1.41
GGTGGCTTCG	0.965
CTTGGCCGGC	0.994
ACTCAGTTGA	1.03
CACCGCATTA	1.63
TCGGGAGATG	0.994
GACACGCGGC	1.12
GATACAGAAG	1.04
ATCGTTACGG	1
CCCTGGCGCG	1.05
AGGAGAACAA	1.03
AGTTTGGTCG	0.953
CGACTTGTAC	2.33
CATATTTCCC	0.973
CTGATCCAGG	1.4
TCGTGCTGCC	1
CGTGGGACCG	1.01
ACAGGAAGGA	1.01
TTGCGGCTAC	1.01

Sequence	switch fluorescence ratio
CGGCGCGGAG	1.08
GCCTGGGTGG	1.08
CGGCGGATAG	1
GGCTAGTGGT	0.964
ATATGTAGAC	0.981
CAGGCGATCT	1.06
CCTGGGACCG	1.09
ACCACTTATT	1.05
ATTCCTAGAG	1.01
CGCCGGCCAC	1.12
CACACAATGG	1.15
AAATGTCTCG	0.998
GCGAGGGAGC	0.964
TTAGGAAGGC	0.972
GACTTGGGAA	0.968
CGTGGATTAA	0.95
TACGTTACG	1.21
TTCCGTTGG	1.35
AAAAGTCGGA	0.975
GTCAGTCCGG	1.03
AGGTTCAAAA	1
CGATCAACAT	1.04
GATCAGAGCA	1.02

Sequence	switch fluorescence ratio
CGACCCGTCA	1.04
TCCCTCACCA	1.06
GTTGCTTTTC	1.02
GGTGACTCGC	1.04
TTATTAACCG	1.03
ATATCGCTGC	1.12
CGCCATTATA	0.981
GTAGAATGTA	1.03
GCCCTCCGGA	2.01
CTAGGTGCCA	1.08
GATATTCGTT	1.01
CGTATATAAT	1.01
GACGTTGGCT	0.995
CATTATTCCG	0.956
ATGGATAGTT	0.963
ATGTCCAAAC	1.06
ACTCAGTACG	1.11
CCTCTTTGAA	1.14
TACTGTGATG	1
CTCGATTGGC	0.991
GGGTAAGTGG	1
CATATGGTAG	1.03
TATAACTATG	1.01

Sequence	switch fluorescence ratio
TTGGGGCGCT	1.03
ATTCACAGCG	0.977
CATTAGACAG	0.976
GCTGTCTATT	0.987
AATTTGTTGA	1.03
CAGTTTCTAG	0.986
ACCTGTGTTC	1.01
GTCATCCGGT	1.05
CCCTGCCGAG	1.33
AATATCGGGC	1.06
ACTACTCGGA	1
TCCGTGCGAG	1.33
ATGGCTCCAT	0.975
TACATTTATG	1.04
GTTGCTAGGA	1.01
TAAGTTTATA	1.02
CGTCGCATGG	1.78
CAGAAAAATC	0.99
TACTTTGTTT	0.966
ATCTGCACT	1.16
ACCTTCAGGA	1
TCTCAGTGAG	0.987
TGGCTAACTT	0.998

Sequence	switch fluorescence ratio
GCAGGGGACC	1.46
TCGCGGGGCT	1.05
TTGTCGTTAG	0.996
TGCTGCTGCG	1
ACTGAGGTAG	1.07
TCCACCTGTG	1.4
GTGGATTCCG	0.975
GTGATCACTA	0.999
CGACTTCGGA	1.07
CATCAAAACG	0.995
TACTAGAGTC	1.07
GTTTGTTGG	1
AGCATATACA	2.15
GCACCACCTT	1.21
CTTTGAACCG	1.01
ACTGGCCAGA	0.988
GGATGTCACG	1
ACAGGGTAAA	1
TTCACAGAGC	1.02
AACTATGGAT	1.03
TGTTCAGCTT	1.02
TTAACCTGGG	1
GCAAAGGAGA	1.02

Sequence	switch fluorescence ratio
GAGGGGTAAC	0.98
GAAATGCTCA	1.13
ATAGCGTGGT	1.03
CGAATGTAGT	0.95
GTAAATCTCT	1.01
AGTCGGCGCT	1
CTGGAAGCAC	3.01
CTTAATTGAA	1
ATAAACATGA	0.972
GCTTCACCGA	1.03
GAGCGTGGTC	0.965
CGCACTGGAC	2.17
AGGGATTATG	1.01
GATTTGGTTT	0.977
TGTTTCAGAA	0.962
TAATATGCGT	0.996
TACGCAGGT	1.01
TTCTTGGCAC	1.04
CGGTGAGGCA	0.98
GGGGGTTCCA	0.986
GGGAGCTCGT	1.01
AGTGCCGAGT	0.93
GCGGGAAGGC	1.02

Sequence	switch fluorescence ratio
CCAGTGGTCG	0.973
GTGGGGATGA	1.01
AAATCTCTGT	1.03
TGTTATCATT	1.01
ACTGAGCGGG	1.01
TCCATGGCTC	0.975
ACAATAGTGT	1.02
CCCGTAGATT	0.989
TGGGGCCCAG	0.973
TAGCATACGG	1.3
GGATTCGCGA	0.963
ATTCAGTCGA	0.955
CAATCCTGTG	0.989
TCGAGGTATC	0.97
GGGGTTCGAC	0.941
TCCACGGAGG	0.943
GCGAGACCC	1.05
CTTAGCTGCG	1
GCTTTGAATC	1
